Screen size: about 310,000 compounds; about 14,000 (4.5%) showed an effect of 50% or more. Effects have a minus sign here. The list shows a part of the results.
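Note: peak tail current of the secondary pulse compared with the same well before compound.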

human ether-à-go-go-related gene (hERG) potassium channel, sequence (Q12809 whole entry, looked up): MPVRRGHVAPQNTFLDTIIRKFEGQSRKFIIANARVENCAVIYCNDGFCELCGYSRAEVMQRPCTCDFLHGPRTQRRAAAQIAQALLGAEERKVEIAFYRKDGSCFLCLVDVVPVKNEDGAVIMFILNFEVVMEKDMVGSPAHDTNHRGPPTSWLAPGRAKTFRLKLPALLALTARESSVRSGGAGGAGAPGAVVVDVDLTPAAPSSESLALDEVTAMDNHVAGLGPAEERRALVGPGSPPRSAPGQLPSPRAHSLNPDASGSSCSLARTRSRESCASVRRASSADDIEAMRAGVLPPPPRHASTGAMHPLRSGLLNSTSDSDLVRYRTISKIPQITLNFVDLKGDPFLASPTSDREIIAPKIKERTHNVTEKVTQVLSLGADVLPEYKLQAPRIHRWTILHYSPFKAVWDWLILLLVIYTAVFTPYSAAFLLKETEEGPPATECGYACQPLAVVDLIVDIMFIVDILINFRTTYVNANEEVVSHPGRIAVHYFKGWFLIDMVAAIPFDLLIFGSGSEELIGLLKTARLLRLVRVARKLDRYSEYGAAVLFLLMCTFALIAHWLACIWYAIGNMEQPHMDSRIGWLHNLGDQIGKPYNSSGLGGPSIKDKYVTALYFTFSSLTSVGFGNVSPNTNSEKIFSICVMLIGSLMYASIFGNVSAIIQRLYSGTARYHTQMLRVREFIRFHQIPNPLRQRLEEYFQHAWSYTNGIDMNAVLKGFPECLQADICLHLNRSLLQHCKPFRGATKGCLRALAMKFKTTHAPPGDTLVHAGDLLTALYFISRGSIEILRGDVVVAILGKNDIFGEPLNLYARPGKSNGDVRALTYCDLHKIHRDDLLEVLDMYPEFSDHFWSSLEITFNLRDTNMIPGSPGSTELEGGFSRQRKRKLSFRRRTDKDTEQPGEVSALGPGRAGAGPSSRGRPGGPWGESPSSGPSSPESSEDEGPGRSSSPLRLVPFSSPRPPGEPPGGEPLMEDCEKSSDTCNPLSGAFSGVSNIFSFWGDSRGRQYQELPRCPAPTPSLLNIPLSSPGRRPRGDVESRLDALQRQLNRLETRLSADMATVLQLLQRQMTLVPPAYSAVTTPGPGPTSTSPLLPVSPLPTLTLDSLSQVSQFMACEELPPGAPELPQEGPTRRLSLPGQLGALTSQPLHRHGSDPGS

This assay has as its target human ether-à-go-go-related gene (hERG) potassium channel (human, UniProt Q12809). Nature of the assay: primary screen, population patch clamp on CHO cells stably expressing hERG.
Take `COc1ccc(/C=C/c2c(-c3ccc(OC)cc3)sc3ccc(N4CCOCC4)cc23)cc1`: the “hERG current change (%, negative = inhibition) at 10uM” value was found to be 1.1%. Regarding `CCc1ccc(-c2cc(C)no2)cc1S(=O)(=O)NCc1ccccc1OC`, the “hERG current change (%, negative = inhibition) at 10uM” value was -15.8%.

With `CC1CCc2nc3ccc(S(=O)(=O)N4CCC(C(=O)O)CC4)cc3c(C(=O)O)c2C1` (centres unmarked), the “hERG current change (%, negative = inhibition) at 10uM” value is listed as 16.7%. For `O=C(O)CSCC(=O)Nc1ccc(S(=O)(=O)N2CCCCC2)cc1`, the “hERG current change (%, negative = inhibition) at 10uM” value was -6.15%.

As to `CN(C1=NC(=O)C(CC(=O)Nc2ccc(Br)cc2)S1)c1ccc(O)cc1` (centres unmarked), the “hERG current change (%, negative = inhibition) at 10uM” value is on record as -18.9%. To `CCOC(=O)c1cnn(-c2ncnc3c2oc2ccccc23)c1N` belongs 5.61%; to `CCOC(=O)C1C(c2cc(OC)c(O)c(OC)c2)NC(=S)NC1(O)C(F)(F)F` (centres unmarked), 6.12%; to `Cc1ccc(-c2nc(C3CCN(S(C)(=O)=O)CC3)no2)cc1`, -4.33%.

As to `COc1cc(C(=O)N2CCC(n3cnc4cc(F)ccc43)CC2)cc(OC)c1OC`, the “hERG current change (%, negative = inhibition) at 10uM” value was -56.9%. To `O=C1CN(S(=O)(=O)c2cccc(Cl)c2Cl)c2ccccc2N1` belongs 3.58%; to `Cc1nc([N+](=O)[O-])cn1CC(=O)Nc1ccc([N+](=O)[O-])cc1`, 10.8%; to `CCn1c(Cc2cccs2)nnc1SCC(=O)NC(C)(C)C`, 14.1%. In the case of `CCn1c2ccccc2c2cc(NC(=O)COC(=O)c3ccc(O)cc3)ccc21`, the “hERG current change (%, negative = inhibition) at 10uM” value stood at 12.4%. Next, `O=C(O)c1cc(-n2cccc2)ccc1N1CCOCC1`: 6.18%; `Cc1ccccc1OCCC(=O)OCC(=O)c1c(N)n(CC(C)C)c(=O)n(C)c1=O`: -75.2%; `COc1ccc(C(=O)Nc2nnc(C)s2)cc1S(=O)(=O)N1CCOCC1`: -14%. On to `Oc1oc(-c2ccccc2Br)nc1C=Nc1ccc(Br)cn1`, for which the “hERG current change (%, negative = inhibition) at 10uM” value is 10.8%. As to `CC(=NCc1ccc2c(c1)OCO2)c1c(O)n(C)c(=O)n(C)c1=O`, the “hERG current change (%, negative = inhibition) at 10uM” value was -6.14%. Take `Nc1ncc([N+](=O)[O-])cc1S(=O)(=O)c1ccccc1`: the “hERG current change (%, negative = inhibition) at 10uM” value amounted to 8.32%. Next, `c1ccc(-c2nc(NCC3CCCO3)c3ccccc3n2)nc1` (centres unmarked): -23.3%. Take `Clc1ccc2scc(CN3CCCC3)c2c1`: the “hERG current change (%, negative = inhibition) at 10uM” value is given as -9.81%. In the case of `N#Cc1ccc(OC(=O)Cc2ccsc2)cc1`, the “hERG current change (%, negative = inhibition) at 10uM” value is 30.1%. As for `Cl.Fc1ccc(CN2C3=NCCCN3c3ccccc32)cc1`, the “hERG current change (%, negative = inhibition) at 10uM” value was -71.2%. Consider `C/C(N)=C(/C#N)C(=O)CSc1nnc(Nc2c(C)cccc2C)s1`, for which the “hERG current change (%, negative = inhibition) at 10uM” value is on record as -6.78%. Next, `CCN(c1ccccc1)P(=O)(Nc1ccccc1)Nc1ccccc1`: 0.944%; `CCOC(=O)c1[nH]c(C)c(C(=O)N(CC)CC)c1C`: 4.54%; `Cc1c(Cl)cccc1-n1c(-c2cccnc2)n[nH]c1=S`: 25.2%.

Consider `CC(NC(=O)CN(C1CCCCC1)S(C)(=O)=O)c1ccccc1` (centres unmarked), for which the “hERG current change (%, negative = inhibition) at 10uM” value came out at 0.428%.

Consider `COc1ccc(-c2nc(CS(=O)CC(=O)NCc3cccnc3)c(C)o2)cc1OC` (centres unmarked), for which the “hERG current change (%, negative = inhibition) at 10uM” value is on record as -2.9%. On to `CC(=O)Nc1ccc(S(=O)(=O)N2CCC(c3nc4ccccc4[nH]3)CC2)cc1`, for which the “hERG current change (%, negative = inhibition) at 10uM” value is reported as -18.4%. To `C/C(=N\NC(=O)c1cccc(O)c1)c1ccc(NC(=O)Cc2ccccc2)cc1` belongs -27%; to `CC1(C)CC(=O)C(CCC(=O)c2ccccc2)C(C)(C)N1` (centres unmarked), 0.958%; to `COc1cc(OC)c(C2=NOC(C(=O)NCc3cccnc3)C2)cc1Cl` (centres unmarked), 13%. Next, `CN1CCN(C(=O)C2CCC(=O)N(Cc3cccc(C(F)(F)F)c3)C2)CC1` (centres unmarked): -2.93%; `COc1ccc(CC2S/C(=C(\C#N)C(=O)NCc3ccco3)N(c3ccc(C)cc3)C2=O)cc1` (centres unmarked): 11.5%. Regarding `CCC(C)NC(=O)Cn1ccc2cc(S(=O)(=O)N3CCCCCC3)ccc21` (centres unmarked), the “hERG current change (%, negative = inhibition) at 10uM” value was -8.77%. For the molecule `Cc1ccc(S(=O)(=O)N2CCC(C(=O)NCCCN3CCOCC3)CC2)cc1`, the “hERG current change (%, negative = inhibition) at 10uM” value was -11.4%. `O=C(CSc1nc2ccccc2[nH]1)Nc1ccc(N2CCOCC2)cc1`: the “hERG current change (%, negative = inhibition) at 10uM” value was found to be 8.65%. Turning to `C/C(CC(=O)Nc1cccc(Cl)c1Cl)=N\NC(=O)C(=O)NC1CCCCC1`, the “hERG current change (%, negative = inhibition) at 10uM” value is -10.5%. Take `COC(=O)c1ccccc1Nc1ccccc1`: the “hERG current change (%, negative = inhibition) at 10uM” value was 5.46%.

Take `CCOC(=O)c1cnc(Nc2nc3ccccc3o2)nc1CSc1nnc(C)s1`: the “hERG current change (%, negative = inhibition) at 10uM” value is on record as -5.06%. Turning to `CCCCN1C(=O)C(=O)N(CC(=O)Nc2ccccc2C(=O)OCC)C1=O`, the “hERG current change (%, negative = inhibition) at 10uM” value is reported as 8.29%. For the molecule `CCOC(=O)c1ccc(NC(=O)c2sc3nc(N4CCOCC4)c4c(c3c2N)CCCC4)cc1`, the “hERG current change (%, negative = inhibition) at 10uM” value is 13.7%. Regarding `O=C(CNS(=O)(=O)c1cccs1)N1CCC2(CC1)OCCO2`, the “hERG current change (%, negative = inhibition) at 10uM” value worked out at 1.9%.
